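Tested at 5 concentrations; 48 h exposure; 96-well plates; endpoints linearly interpolated, else capped at highest concentration. GI50: concentration for 50% inhibition of growth.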 Activity calls are given as the source filed them. No stated cut-off is given here; in the data, active = GI50 up to about 1.1 µM and inactive = higher.
System: NCI-H322M
Assay: growth of human tumour cells (NCI), 48 h

| Structure (SMILES) | GI50 |
| --- | --- |
| NCCCCC(NC(=O)C(N)Cc1ccc(O)cn1)C(=O)O (stereo not drawn) | inactive: > 100 µM |
| OCC1OC(O[C@H]2CN3[C@H](O)[C@@H](O)[C@H](O)[C@H]3C2O)C(O)C(O)C1O (stereo partly drawn) | inactive: > 100 µM |
| BC(=O)NC(CC(C)C)C(=O)NC1c2ccsc2C(=O)C1O.CN(C)C (stereo not drawn) | inactive: > 100 µM |
| C#CCN(N=O)C(=O)NCCCCC(NC(C)=O)C(=O)NCc1ccccc1 (stereo not drawn) | inactive: > 100 µM |
| C[P+](C)(CC(F)(F)F)c1ccccc1 | inactive: > 100 µM |
| Cc1cnc2c(C)ccc([N+](=O)[O-])c2c1NCCCN(C)C | inactive: > 100 µM |
| N/C(=N\c1ccc(Cl)cc1)NS(=O)(=O)c1cc(Cl)c(Oc2ccc([N+](=O)[O-])cc2Cl)c(Cl)c1 | inactive: 16.6 µM |
| COc1ccc(C2=C(N)c3c(OC)cccc3C2=O)cc1 | inactive: > 100 µM |
| O=C1CC(NCCCNC2CC(=O)c3c(Br)sc(Br)c32)c2c(Br)sc(Br)c21 (stereo not drawn) | inactive: 4.14 µM |
| O=c1[nH]nc(-c2ccccc2)n1-n1cccc1 | inactive: > 100 µM |
| C1=C2/CC[C@H](Sc3ccccc3)C2C2(CCCCC/1)OCCO2 (stereo partly drawn) | inactive: 75.9 µM |
| NCCCNCCCCN1CC1 | active: 0.92 µM |
| Cc1n[n+]([O-])c(C)cc1[N+](=O)[O-] | inactive: 17 µM |
| Cc1c(-c2nnc(-c3ccccc3)o2)c(=O)n(-c2ccccc2)n1C | inactive: > 100 µM |
| O=C1Nc2ccccc2/C1=C1/Nc2ccccc2/C1=N\OCCNCC(O)C(O)C(O)C(O)CO (stereo not drawn) | inactive: 17.9 µM |
| Nc1nc(-c2cc(-c3cccc4ccccc34)nc(N)n2)cc(-c2cccc3ccccc23)n1 | inactive: > 100 µM |
| COc1ccc(C(=O)c2cc(OC)c(OC)c(OC)c2)cc1 | active: 0.209 µM |
| N#CC1=C(N)OC(c2ccc([N+](=O)[O-])cc2)C1(C#N)C#N (stereo not drawn) | inactive: 20 µM |
| Clc1cc(N/N=C(\c2ccccc2)c2ccccn2)ncn1 | active: 0.0679 µM |
| CCCN1C(=O)CNC(=O)c2[nH]cnc21 | inactive: > 100 µM |
| O=C1C(c2c(O)[nH]c3ccc(Br)cc23)=Nc2ccccc21 | inactive: 10.6 µM |
| Cc1cc(NS(=O)(=O)c2ccc(NC(=O)c3ccc4[nH]c5ccccc5c(=O)c4c3)cc2)no1 | inactive: 35.4 µM |
| CC(=O)O/C=C\OC1CCCC1(c1ccccc1)c1ccccc1 (stereo not drawn) | inactive: 11.7 µM |
| CCOc1ccc(/N=N/C2C(=O)N(C(=O)CC(=O)Nc3ccc(Cl)cc3)N=C2C)cc1 (stereo not drawn) | inactive: > 100 µM |

| Structure (SMILES) | GI50 |
| --- | --- |
| COc1cc(/C=C2\N=C(c3ccccc3)N(c3cc4cc(Sc5ccccc5)ccc4[nH]3)C2=O)cc(OC)c1OC | inactive: 20.6 µM |
| Cn1c2ccccc2c(=NNc2cccc(C(=O)O)c2)c2ccccc21 | inactive: 16.1 µM |
| NCCCCN(CCCN)C(=O)OCc1ccccc1 | inactive: > 100 µM |
| O=C(O)CCC(NC(=O)c1ccc(CNc2nc3ccccc3nc2C(=O)O)cc1)C(=O)O (stereo not drawn) | inactive: > 100 µM |
| O=C(C#Cc1ccccc1)NC/C=C/c1ccccc1 | inactive: 40.6 µM |
| Cc1c(N)c(C#N)c2n(C)c3ncccc3n2c1=O | inactive: > 100 µM |
| O=C1c2ccccc2CN1c1ccc(O)cc1 | inactive: > 100 µM |
| Cn1c(=O)c2nc3c(=O)n(C)c(=O)n(CC(N)=O)c3nc2n(C)c1=O | inactive: > 100 µM |
| CNc1ccc(C)cc1S(=O)(=O)c1ccccc1[N+](=O)[O-] | inactive: > 100 µM |
| COc1c2c(cc3c1-c1c(cc4c(c1OC)OCO4)C1OC3C(C)C1C)OCO2.COc1cc2c(c(OC)c1OC)-c1c(cc3c(c1OC)OCO3)C1OC2C(C)C1C (stereo not drawn) | inactive: > 100 µM |
| CC1(C)[C@H]2CC[C@]1(C)[C@H](OC(=O)NNC(=O)O[C@@H]1C[C@@H]3CC[C@@]1(C)C3(C)C)C2 | inactive: 17.3 µM |
| COc1ccc(C2=Nn3c(nnc(Cc4ccc(Cl)cc4)c3=O)SC2)cc1 | inactive: > 100 µM |
| CCC1(c2ccc(N3C(=O)c4cc(OC)c(OC)cc4C3=O)cc2)CCC(=O)NC1=O (stereo not drawn) | inactive: > 10 µM |
| C=C1C(=O)OC2C1C(OC(=O)/C(C)=C/C)CC(O)(CCl)C1C(O)C3OC3(C)C21O (stereo not drawn) | inactive: > 50 µM |
| CCOC(=O)C(=O)Nc1ccc(Cl)c(C(F)(F)F)c1 | inactive: > 100 µM |
| Nn1c(S)nnc1C12CC3CC(CC(C3)C1)C2 | inactive: > 100 µM |
| O=C(CC1C(=O)Nc2ccccc2S1(=O)=O)Nc1cccc(Cl)c1 (stereo not drawn) | inactive: 34.7 µM |
| O=C(C[n+]1ccccc1)NNC(=O)/C(=C/c1ccc2c(c1)OCO2)NC(=O)c1ccccc1 | inactive: > 100 µM |
| COc1ccc(Cn2c(=O)c(OC)c(C)c3cc4ccccc4cc32)cc1 | inactive: 32.4 µM |
| Cc1cc2c(cc1C)C(=O)c1ncccc1C2=O | inactive: 21.7 µM |
| COC(=O)C1Cc2c(OC)ccc(OC)c2CC(C(=O)OC)C1=O (stereo not drawn) | inactive: 60.1 µM |
| COC(=O)c1cc(O)ccc1O [METHYL 2,5-DIHYDROXYBENZOATE] | inactive: > 100 µM |
| O=C(NN1C(=O)C(Cl)C1c1ccccc1Cl)c1ccccc1O (stereo not drawn) | inactive: > 100 µM |
| CC(C)(C)c1cc(O)ccc1O [E319] | inactive: > 100 µM |

| Structure (SMILES) | GI50 |
| --- | --- |
| O=C(Cc1ccc(F)cc1)NC1=C(Cl)C(=O)c2ccccc2C1=O | inactive: 7.82 µM |
| Nc1nc(-[n+]2ccc(-c3ccncc3)cc2)nc(Cl)c1Cl | inactive: > 100 µM |
| CN(C)c1ccc(/C=C(\NC(=O)c2ccccc2)C2NC(Cc3c[nH]c4ccccc34)C(=O)O2)cc1 (stereo not drawn) | inactive: > 100 µM |
| CCN(CC)C1Oc2cc3c(cc2C(c2ccc(OC)cc2)C1C)OCO3 (stereo not drawn) | inactive: 21.4 µM |
| S=C1NC(c2ccccc2)NC(c2ccccc2)S1 (stereo not drawn) | inactive: > 100 µM |
| COc1c2ccsc2c(OC)c2ccsc12 | inactive: > 100 µM |
| CCOC(=O)c1ccc(/N=C/C=C(\Nc2ccc(C(=O)OCC)cc2)c2ccc3ccccc3c2)cc1 | inactive: 25.5 µM |
| CCCCCCc1cc(C=O)sc1-c1ccc(-c2sc(-c3ccc(-c4ccc(-c5cc(CCCCCC)c(-c6ccc(-c7sc(C=O)cc7CCCCCC)s6)s5)s4)s3)cc2CCCCCC)s1 | inactive: > 100 µM |
| Nc1c2ccccc2nc2c(C(=O)Nc3ccc(S(N)(=O)=O)cc3)cccc12 | inactive: 35.4 µM |
| C/C1=C\C=C(\C(C)C)CC/C(C(=O)O)=C\CC/C(C)=C/CC1 [NEOCROTOCEMBRANEIC ACID] | inactive: 18.5 µM |
| O=[N+]([O-])c1cccc(C2=NOC(C3CCCCC3)C2)c1 (stereo not drawn) | inactive: > 100 µM |
| CCCCCCCCCC(=O)N[C@H]1CCc2cc(OC)c(OC)c(OC)c2-c2ccc(SC)c(=O)cc21 | active: 0.0421 µM |
| NC(CS)C(=O)NCCNc1ccc(NCCNC(=O)C(N)CS)c2c1C(=O)c1c(O)ccc(O)c1C2=O (stereo not drawn) | active: 0.263 µM |
| N#Cc1nc(C#N)c(N)[nH]1 | inactive: > 100 µM |
| Nn1c(CCCCCCCCc2nnc(COc3c(O)ccc4ccccc34)n2N)nnc1COc1c(O)ccc2ccccc12 | inactive: > 100 µM |
| Cc1cccc(/C=N/NC(=S)Nc2ccccc2)n1 | inactive: 4.16 µM |
| O=c1c2ccccc2nc(-c2ccccc2)n1NC(=S)Nc1ccc(Cl)cc1[N+](=O)[O-] | inactive: > 100 µM |
| Fc1ccc(C2SCc3nc4ccccc4n32)cc1 (stereo not drawn) | inactive: > 100 µM |
| CC1OC1P(=O)(O)O (stereo not drawn) | inactive: > 100 µM |
| N#CC1CC2(C1)OCCS2 (stereo not drawn) | inactive: > 100 µM |
| Cc1cc(C)n(-c2nc3ccccc3c(=O)n2-c2ccccc2)n1 | inactive: > 100 µM |
| COC(=O)[C@]12CCC(C)[C@H](C)[C@H]1C1=CCC3[C@@]4(C)CC[C@H](OC(C)=O)C(C)(C)C4CC[C@@]3(C)C1(C)C(O)C2 (stereo partly drawn) | inactive: > 100 µM |
| COC(=O)c1c(C)[n+]([O-])c2cc(Cl)c(Cl)cc2[n+]1[O-] | inactive: 20.7 µM |
| CCOC(=O)Nn1c(C)nnc1-c1ccccc1 | inactive: > 100 µM |

| Structure (SMILES) | GI50 |
| --- | --- |
| CCOP(=O)(Cc1nc(C#N)c(N)o1)OCC | inactive: > 100 µM |
| COC12C=CC(CC1)C(C)(C)C2OS(C)(=O)=O (stereo not drawn) | inactive: > 100 µM |
| COc1cc(/C=C2\N=C(c3ccccc3)N(c3nc4ccccc4s3)C2=O)cc(OC)c1OC | inactive: 31.3 µM |
| O=C1OC(=O)C2C1C(c1ccccc1[N+](=O)[O-])C=C(c1ccco1)N2c1ccncc1 (stereo not drawn) | inactive: 15.8 µM |
| O=C1NC(=O)C2(CCc3ccc(N(CCCl)CCCl)cc32)N1 (stereo not drawn) | inactive: 48.8 µM |
| CC1OC(OC2C(Oc3cc(O)c4c(c3)O[C@H](c3ccc(O)cc3)CC4=O)OC(CO)C(O)C2O)C(O)C(O)C1O (stereo partly drawn) | inactive: > 100 µM |
| C1=Cc2nc1c(-c1ccccc1)c1ccc([n-]1)c(-c1ccccc1)c1nc(c(-c3ccccc3)c3ccc([n-]3)c2-c2ccccc2)C=C1.[Zn+2] | inactive: > 100 µM |
| CCC1(O)CC(OC2CC(N(C)C)C(OC3CC(O)C(OC4OC(C)C(=O)C=C4N)C(C)O3)C(C)O2)c2c(cc3c(c2O)C(=O)c2c(O)cccc2C3=O)C1C(=O)OC (stereo not drawn) | active: 0.01 µM |
| COc1ccc(C)cc1Nc1nnc(-c2ccccc2N)s1 | inactive: 55.8 µM |
| O=C1C=C(C2OC(CO)C(O)C2O)C(=O)N1 (stereo not drawn) | inactive: > 100 µM |
| C/C=C/c1cc2c(cc1O)CC[C@@H]1[C@@H]2CC[C@]2(C)[C@@H](O)CC[C@@H]12 | active: 0.144 µM |
| COc1ccc2[nH]c3c(C)c4c(c(C)c3c2c1)CN(C)CC4 | inactive: 25.7 µM |
| CCn1c(-c2ccc(F)cc2)nc2c1C(=O)c1ccccc1C2=O | inactive: > 100 µM |
| O=C(Cc1nccc2c1[nH]c1ccccc12)OC1C#CCSCC#C/C=C\1 (stereo not drawn) | inactive: > 100 µM |
| C=C(C)[C@H]1CC[C@@]2(C)C(C1)[C@H](C)CC[C@@H]2O (stereo partly drawn) | inactive: > 100 µM |
| O=C(CCCN1CC=C(n2c(=O)[nH]c3ccccc32)CC1)c1cccs1 | inactive: > 100 µM |
| CN1CCOC(C(NC(=O)c2ccccc2)c2ccccc2)C1=O (stereo not drawn) | inactive: > 100 µM |
| O=C1CC(Cl)c2c1csc2Br (stereo not drawn) | inactive: 18.3 µM |
| Brc1ccc2ns[s+]c2c1 | inactive: > 24.5 µM |
| CCC(=O)O[C@H]1CC[C@H]2[C@@H]3CCC4=C/C(=N/NC(=O)c5cccc6c(=O)c7ccccc7[nH]c56)CC[C@]4(C)[C@H]3CC[C@]12C | inactive: > 25 µM |
| Cc1ccc(C)n1-n1c(-c2ccccc2)n[nH]c1=O | inactive: > 100 µM |

— ChEMBL document CHEMBL1201862, “PubChem BioAssay data set” (2004)
